From the RNAGym collection of RNA variant scans (doi:10.7554/elife.90254)
Read counts are not given, so values of variants with three or more changes are uncertain.

B1: LINE1-mini (parent)
chain: GGCAGAGCUCAACACAGCGUGGCAAAGUGGCUGUGGCUAGACUGCC

Variants of: B1
Experiment: self-cleavage, relative activity (ratio to wild type); higher = more cleavage; in vitro, sequencing; the parent is a self-cleaving ribozyme

Variant	self-cleavage
A4C C10A G21U	0.05
A14G U20G G40U U43A	0.09
G7C C8G A11U C13A	0.02
G22C A24U G30C	0.89
G7C C18G C31A	0.02
U9C C31A G33U	0.03
C3A G7A C18A	0.3
G30C C37U C46U	0.08
C8A U9C U28G U32C U43A G44U	0.02
G7C G29A A39C	0.03
C18A G19C G36U	0.06
C15U A24U G29U A41U C46A	0.1
G1U A4G G36U	0.12
G2C A6C C42G	0.13
G7A C15G C37G	0.05
G2A G5U G29U	0.33
G1A G27U U32G C42U	0.06
A12G U28G G33A C42U	0
G17C C23U A25U A26G	0.1
A14C C15U U20C	0.05
U9A G21U G35A A39C G44U	0.02

Variant	self-cleavage
A12C A41C C42A	0.01
G2U G27A C42U	0.04
G1A G33C C46U	0.02
U9C G17U C18U C46U	0.02
C13U A14C C31A A39G G44C	0.03
C10U A11U U20A G40U	0
C8G C13U A24U A39U	0.07
A4G G5A A26U	0.5
A6U U9C G29C	0.03
C8U C10G A16C G22U C46U	0.02
A11C G21C U28G C46A	0.01
A4G A12G G35U	0
A6G A25U U34A C42A	0.03
A16U G35U C46G	0.05
A4C G21U G29U	0.04
C3A G17C U20G	0.16
G1U G2U G29A	0.32
A6U U28A C37U	0.02
C3A G7C A24G	0.07
A4U A14U G17C A39U	0.06
U9C C37U A41G	0

Variant	self-cleavage
A4U A25C G35U G44U	0.06
C3G G7U G29A	0.06
A14G C23A A24U	0.34
G1U C15U G27A U28C	0.04
A6C A39U C46A	0.11
G21A G27U U32A G36A	0.05
G5U A14G C45G	0.13
C3G G5C G19C A26U G36A C37G	0.03
G1A G29U G40U	0.11
C3U A4U G5A C10G A11G G19U G30U C37U A39C	0.02
G1C G19C G29U	0.06
C15U G29U G35A G44U	0.05
A12C C13A U20C	0.02
G5U G19C G27U	0.03
A6C G7U C37U	0.04
C8U G21U U38A C45U	0.04
G22A G27C G40U	0.38
C15A G35C C37G	0.04
G5U C8A U43C	0.71
C3A A4C A6C G27C C42A	0.16
G1U G2A A6C G7A A11G A12G C15G U38A	0.01

Variant	self-cleavage
A11C G19U A39U	0.02
C13U A14G A26C G27A	0.03
C3A C23U A26U	0.7
G21C A25C U38C	0.35
A4C G7C G21C	0.06
A12U G21U G27U U43G C46U	0.01
G2A C13U A25G	0.16
U9C C10G G19A A41C U43G	0.01
A11C G19A C46G	0.04
C13A A16C U38G	0
C13A G17A U32A U43A	0.01
C3G G7U C8A C18A	0.43
C3A A14U G35U G40A A41C C42A	0.02
G1A C42G G44C	0
U9A U28G C37A C42G	0.07
A4U A24G C31G G35C	0.1
C31U A41C C46A	0.04
C3G G17C A24C C31U U43A G44U	0.04
A4C C13G G19A	0.04
A14U C23A C31A	0.08
